Measurements: PubChem BioAssay AID1745853 (National Center for Advancing Translational Sciences (NCATS), 2022)
Where “and” joins values, the source holds several entries; their conditions need not be identical. Identical values can stand only once. Some of the results follow. Further columns of the screen follow, without active or inactive calls.

How the values were obtained:
Assay in all cases: Primary Screen for Target Class Profiling of Small Molecule Inhibitors of Methyltransferases
[1] = biological target: Glycine N-methyltransferase (Homo sapiens) (UniProt Q14749); settings: purified enzyme, MTase-Glo SAH luminescence; measured here: GNMT inhibition; at 40 µM; stronger effect = lower value
Summary of the method: (§1)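 Each enzyme was reacted with SAM and its substrate, with compounds tested once at 40 uM; SAH formed was read by MTase-Glo luminescence.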

[2] = biological target: Guanidinoacetate N-methyltransferase (Homo sapiens) (UniProt Q14353); settings: purified enzyme, MTase-Glo SAH luminescence; measured here: GAMT inhibition; at 40 µM; stronger effect = lower value
Summary of the method: as §1

[3] = biological target: Histamine N-methyltransferase (Homo sapiens) (UniProt P50135); settings: purified enzyme, MTase-Glo SAH luminescence; measured here: HNMT inhibition; at 40 µM; stronger effect = lower value
Summary of the method: as §1

[4] = biological target: Nicotinamide N-methyltransferase (Homo sapiens) (UniProt P40261); settings: purified enzyme, MTase-Glo SAH luminescence; measured here: NNMT inhibition; at 40 µM; stronger effect = lower value
Summary of the method: as §1

[5] = biological target: Phenylethanolamine N-methyltransferase (Homo sapiens) (UniProt P11086); settings: purified enzyme, MTase-Glo SAH luminescence; measured here: PNMT inhibition; at 40 µM; stronger effect = lower value
Summary of the method: as §1
On the % scale 0 is the no-effect control and ±100 the full control effect.

Row | Compound | activity change, negative = inhibition [1] | activity change, negative = inhibition [2] | activity change, negative = inhibition [3] | activity change, negative = inhibition [4] | activity change, negative = inhibition [5]
1 | Cc1nc2c3ccccc3n(CC(=O)N3CCN(c4ccccc4F)CC3)c(=O)n2n1 | -6.66% | 0% | -9.68% | -10.9% | -10.8%
2 | CC(C)NC(=O)c1ccc2c(=O)n(C(C)C)c3nn(CC(=O)NC(C)(C)C)c(=O)n3c2c1 | 7.55% | 0.932% | 6.53% | 1.66% | 5.78%
3 | CC(C)C(CO)Nc1nc(Nc2ccc(C(=O)O)c(Cl)c2)c2ncn(C(C)C)c2n1 (stereo not drawn) | -7.79% | -19.3% | -12.1% | -30.2% | -17%
4 | O=C(CCn1ccc2cc(S(=O)(=O)N3CCCC3)ccc21)NCc1ccc(Cl)cc1 | 0.037% | 3.53% | 3.8% | -5.49% | 0.128%
5 | COc1ccccc1CCNC(=O)c1cc2n(n1)CC(C)(C(=O)NCc1ccccc1)N(C)C2=O (stereo not drawn) | 5.34% | 0% | 5.48% | 7.28% | 4.36%
6 | CCCn1c(=O)c2ccc(C(=O)NC(C)C)cc2n2c(SCC(=O)NCc3ccc(C)cc3)nnc12 | -3.62% | 0% | 2.3% | -7.76% | -6.35%
7 | CC(=O)N[C@@H](CC(=O)O)C(=O)N[C@@H](CCC(=O)O)C(=O)N[C@H](C(=O)N[C@@H](CC(=O)O)C(=O)Nc1ccc2c(C)cc(=O)oc2c1)C(C)C | -3.51% | -12% | -3.26% | -44.8% | -29.7%
8 | CCC(C)NC(=O)Cn1nc2n(C(C)C)c(=O)c3ccc(C(=O)NCC(C)C)cc3n2c1=O (stereo not drawn) | 2.81% | 0.231% | 6.27% | 4.33% | 4.3%
9 | Cc1cncc2cccc(S(=O)(=O)N3CCCNC[C@@H]3C)c12 |  | -5.75% |  | -17.9% | -2.48%
10 | COc1cc(C[C@H]2COC(=O)[C@@H]2Cc2ccc(O)c(OC)c2)ccc1O | -5.5% | 4.47% | 9.64% | -10.9% | 2.1%
11 | COc1ccc(CN2C(=O)c3nc4ccccc4n3CC2(C)C(=O)NCCC(C)C)cc1 (stereo not drawn) | -2.11% | -3.86% | 6.58% | 8.15% | 3.94%
12 | CCCOc1ccc(CN2C(=O)c3cc4occc4n3CC2(C)C(=O)NC2CCCCC2C)cc1 (stereo not drawn) | -8.71% | 4.83% | -7.53% | -8.37% | -6.55%
13 | CCCN1C(=O)c2c(C(=O)NCc3cccc(OC)c3)ncn2CC1(C)C(=O)NC1CCCC1 (stereo not drawn) | 1.87% | 1.86% | 4.61% | 4.11% | 9.1%
14 | CC1(C(=O)NCc2ccccc2)Cn2nc(-c3ccccc3)cc2C(=O)N1Cc1ccco1 (stereo not drawn) | -3.78% | 4.83% | 0.497% | 1.03% | 0.512%
15 | COC(=O)c1cc2n(n1)CC(C)(C(=O)NC1CCC(C)CC1)N(c1cc(Cl)ccc1C)C2=O (stereo not drawn) | 8.9% | 5.86% | -3.04% | 5.85% | 6.79%
16 | COc1ccccc1C1(CC(=O)O)CCOC(C)(C)C1 (stereo not drawn) | 1.07% | 0.173% | 5.18% | 13.7% | 1.24%
17 | CCOC(=O)c1cc2n(n1)CC(C)(C(=O)NCc1ccc(F)cc1)N(c1cc(C)cc(C)c1)C2=O (stereo not drawn) | 2.2% | 4.1% | -1.24% | -6.69% | -2.37%
18 | CCCN1C(=O)c2c(C(=O)NCCC(C)C)ncn2CC1(C)C(=O)NCCC(C)C (stereo not drawn) | -1.84% | 2% | 4.92% | -1.74% | 8.65%

Row | Compound | activity change, negative = inhibition [1] | activity change, negative = inhibition [2] | activity change, negative = inhibition [3] | activity change, negative = inhibition [4] | activity change, negative = inhibition [5]
19 | CCCCNC(=O)c1cc2n(n1)CC(C)(C(=O)NCc1ccccc1)N(C)C2=O (stereo not drawn) | -0.94% | -0.237% | 5.34% | 0.921% | -0.177%
20 | OC[C@H]1O[C@@H](O[C@H]2[C@H](OCc3ccccc3)O[C@H](CO[C@@H]3OC[C@@H](O)[C@H](O)[C@H]3O)[C@@H](O)[C@@H]2O)[C@H](O)[C@@H](O)[C@@H]1O | 5.32% | 5.12% | 10.9% | -9.69% | 6.02%
21 | c1ccc(CN2CCC[C@H]2c2nc(-c3ccnc(N4CCOCC4)c3)no2)nc1 | -5.23% | -3.02% | -10% | -8.34% | -5.13%
22 | COc1cc2ncnc(Nc3cccc(Cl)c3)c2cc1OC | -38.8% and -59.9% | -26.6% and -31.6% | -38.7% and -68.2% | -71% and -41.9% | -35.4% and -53.9%
23 | COC(=O)c1ncn2c1C(=O)N(Cc1ccc3c(c1)OCO3)C(C)(C(=O)NC1CCCC1)C2 (stereo not drawn) | 2.71% | 2.98% | -3.06% | 1.52% | -3.29%
24 | CC(=O)OCC(=O)[C@@]12O[C@@H]1C[C@H]1[C@@H]3CC=C4C[C@@H](O)CC[C@]4(C)[C@H]3CC[C@@]12C | -4.92% | -4.94% | 1.53% | -14.3% | -0.229%
25 | COc1ccc(CC(=O)N2C[C@@H]3C[C@H](C2)c2c(-c4ccc(NC(C)=O)cc4)ccc(=O)n2C3)cc1 | -6.03% | -5.89% | -1.51% | -4.16% | -8.76%
26 | CC(C)(O)/C=C/C(=O)[C@](C)(O)[C@H]1[C@H](O)C[C@@]2(C)[C@@H]3CC=C4[C@@H](C[C@H](O[C@@H]5O[C@H](CO)[C@@H](O)[C@H](O)[C@H]5O)C(=O)C4(C)C)[C@]3(C)C(=O)C[C@]12C | 4.1% | -0.337% | 4.71% | -6.82% | 3.7%
27 | COc1ccccc1CN1C(=O)c2ccc(-c3ccco3)n2CC1(C)C(=O)NC1CCCCCCC1 (stereo not drawn) | -7.84% | 0% | -4.54% | -15.9% | -6.15%
28 | Cc1ccccc1CN1C(=O)c2cc(C(C)(C)C)nn2CC1(C)C(=O)NCc1ccccc1 (stereo not drawn) | 0.194% | 7.25% | -0.862% | -6.98% | -5.71%
29 | Cc1[nH]nc(C(F)(F)F)c1Cc1sc2c(c1C(=O)N1C[C@](C)(O)CO1)c(=O)n(C)c(=O)n2C(C)C | 4.26% | 6.39% | 4.93% | -8.31% | 5.6%
30 | CCOc1ccc(CNC(=O)c2cc3n(n2)CC(C)(C(=O)NC2CCCCC2)N(C)C3=O)cc1OC (stereo not drawn) | 1.74% | 4.17% | 5.77% | 3.71% | 1.08%
31 | CCCCN1C(=O)c2cc(C(=O)Nc3cccc(CC)c3)nn2CC1(C)C(=O)NC1CCCC1 (stereo not drawn) | 1.63% | 0% | -6.05% | -5.61% | -0.549%
32 | Nc1nc(COC(=O)c2ccc([N+](=O)[O-])cc2)nc(Nc2ccccc2)n1 | -0.715% | -6.32% | -6.82% | -19.2% | -14.4%
33 | O=C(c1ccc(Cl)s1)N1CCC(n2cnnc2-c2ccccc2)C1 (stereo not drawn) | -10.1% | -1.44% | -3.79% | -6.2% | -1.19%
34 | COc1ccc(CNC(=O)[C@H]2O[C@H](CCN(C)CCc3ccccc3)CC[C@@H]2O)cc1 | -5.5% | -9.76% | -7.79% | -16.5% | -9.61%
35 | Clc1ccc(-c2nnn3c2nc(NCC2CCCO2)c2ccccc23)cc1 (stereo not drawn) | -1.99% | 4.35% | 3.1% | 8.79% | -3.38%
